Measurements: the supplement of paper PMC5499739
Whole data set: some 16,000 sequences, median “Z-score” near -0.37, cut for the highest 2% near 3.2. This is one part of the list.

Test system: RBM10 RRM1-ZnF (GST-tagged construct)
Experiment: RNAcompete 7-mer binding Z-score; higher = stronger binding preference
Summary of the method: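 Each heptamer motif was given a one-sided Z-score for enrichment across the probes that contained it. GST-tagged RBM10 constructs (20 pmol) were combined with 1.5 nmol of a designed pool of 241 399 RNAs of up to 41 nt, transcribed from microarray-derived DNA templates. Binding took place in 1 ml Hepes pH 7.8 buffer containing KCl, NaCl, glycerol, DTT, BSA and glutathione Sepharose beads for 30 min at 4°C. After four 2-min washes at 4°C, bound RNA was identified by microarray hybridisation.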

Sequence	RNAcompete 7-mer binding Z-score
AAAUAAU	-0.37
GUGAUCU	-0.321
UUGUUCU	-0.789
GCUCGCU	-0.652
CACGCAC	-0.402
UCCUCUC	-0.535
UAACGAU	-0.383
UAUGGUG	1.69
UAGUUUC	-0.568
GACGCAC	-0.37
CCAAUCG	-0.6
UAACCUG	-0.607
GUUGUAC	-0.152
GAACGAU	-0.149
GUGAAGU	1.08
AUAGGAG	2.4
GCGUGAU	0.222
AUUUAGA	-0.21
CACAUAC	-0.701
ACACUGA	-0.415
UUAAAUA	-0.337
UUUCGGA	0.0105
AACCAAU	-0.617

Sequence	RNAcompete 7-mer binding Z-score
AAUUCAG	-0.496
GUCUGAU	-0.516
GAGAUUG	0.573
GUAUUUU	-0.604
UGCUCUA	-0.789
UAAGUUA	-0.204
CGGCUUG	-0.324
GAACUCU	-0.841
GUCUUUG	-0.496
UUCUCAA	-0.733
UCGGGUC	0.329
AGGUAGU	1.19
CUAUAGU	-0.532
CUUUACC	-0.98
CGAAACC	-0.629
ACUAACG	-0.321
UCUACAA	-0.6
AAAUUUG	-0.347
AAAGGUA	3.05
AAGUGAC	0.576
UUCCCGC	-0.759
GGAGUCA	0.975
CCUAGAG	-0.425

Sequence	RNAcompete 7-mer binding Z-score
GGCCCGC	-0.451
AUUAGGU	0.884
AGUCGAC	-0.21
AAAGUCU	-0.565
AUAUCCG	-0.724
CCGAAGA	-0.581
AUACGUC	-0.474
UGUCUGU	-0.62
AGAAGCA	0.0723
UGAGUCC	-0.623
UAGGUGG	3.08
GAGGAGG	2.97
CUCACUA	-0.72
CUUGCGC	-0.74
GUAGUGU	1.01
UCACUAU	-0.665
UGUCUUG	-0.646
UGGAACC	0.322
AGCCAAU	-0.597
UAACCGC	-0.509
UCUUCGU	-0.85
GACCACA	-0.639
ACUGUAG	-0.155

Sequence	RNAcompete 7-mer binding Z-score
GAGUAGC	0.293
GACUGUA	-0.383
CCCUUUC	-0.841
CGAGUGG	2
UUGCAGG	0.582
CUCGAAC	-0.74
CGUCUCC	-0.668
UUCCGGC	-0.649
UUUUGUU	-0.461
CCCCUCG	-0.344
GGUGCCU	0.222
GCCUGGG	0.703
AUAGAAC	-0.116
GCCUGUC	-0.678
CAUUCCA	-0.824
GGCAUUG	0.647
ACUGUAC	-0.73
UCAAACG	-0.49
AUACAUC	-0.62
CAGUGAC	-0.506
CCACCUA	-0.526
GCUCCUC	-0.587
AGUUGGU	1.78
